# Measured values: the supplement of paper PMC8728848
# The other results are listed elsewhere or left out.
# Columns and labels:
# Test in all cases: glycan array binding signal (z-score within array); higher = stronger binding
# Conditions in all cases: glycan notation: IUPAC condensed, linker removed
# Neu5Ac(a2-6)GalNAc = target: Neu5Ac(a2-6)GalNAc
# Procedure, shortened: (§1)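 Arrays were curated from the Consortium for Functional Glycomics database, 3228 in total, and kept only where the protein sequence was available. Binding is expressed as a within-array Z-score. This score was averaged across arrays of the same protein sequence at different concentrations or buffers and across linkers, and negative values can be read as non-binding.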
# [1] = target: Neu5Ac(a2-6)GalNAc(b1-4)GlcNAc
# Procedure, shortened: as §1
# [2] = target: Neu5Ac(a2-6)GlcNAc(b1-4)GlcNAc
# Procedure, shortened: as §1
# [3] = target: Neu5Ac(a2-6)GlcNAc(b1-4)GlcNAc(b1-4)GlcNAc
# Procedure, shortened: as §1
# Neu5Ac(a2-8)Neu5Ac = target: Neu5Ac(a2-8)Neu5Ac
# Procedure, shortened: as §1
# [4] = target: Neu5Ac(a2-8)Neu5Ac(a2-3)Gal(b1-4)Glc
# Procedure, shortened: as §1
# [5] = target: Neu5Ac(a2-8)Neu5Ac(a2-3)[Gal(b1-3)GalNAc(b1-4)]Gal(b1-4)Glc
# Procedure, shortened: as §1
# [6] = target: Neu5Ac(a2-8)Neu5Ac(a2-3)[GalNAc(b1-4)]Gal(b1-4)Glc
# Procedure, shortened: as §1
# [7] = target: Neu5Ac(a2-8)Neu5Ac(a2-8)Neu5Ac
# Procedure, shortened: as §1
# [8] = target: Neu5Ac(a2-8)Neu5Ac(a2-8)Neu5Ac(a2-3)Gal(b1-4)Glc
# Procedure, shortened: as §1
# [9] = target: Neu5Ac(a2-8)Neu5Ac(a2-8)Neu5Ac(a2-3)[GalNAc(b1-4)]Gal(b1-4)Glc
# Procedure, shortened: as §1
# [10] = target: Neu5Ac(a2-8)Neu5Ac(a2-8)Neu5Ac(a2-8)Neu5Ac(a2-3)[GalNAc(b1-4)]Gal(b1-4)Glc
# Procedure, shortened: as §1
# Neu5Ac(b1-6)GalNAc = target: Neu5Ac(b1-6)GalNAc
# Procedure, shortened: as §1
# [11] = target: Neu5Ac(b2-6)Gal(b1-4)GlcNAc
# Procedure, shortened: as §1
# Neu5Ac(b2-6)GalNAc = target: Neu5Ac(b2-6)GalNAc
# Procedure, shortened: as §1
# [12] = target: Neu5Ac9Ac(a2-3)Gal(b1-3)GlcNAc
# Procedure, shortened: as §1
# [13] = target: Neu5Ac9Ac(a2-3)Gal(b1-4)GlcNAc
# Procedure, shortened: as §1
# [14] = target: Neu5Ac9Ac(a2-6)Gal(b1-4)GlcNAc
# Procedure, shortened: as §1
# [15] = target: Neu5Gc(a2-3)Gal(b1-3)GlcNAc
# Procedure, shortened: as §1
# [16] = target: Neu5Gc(a2-3)Gal(b1-3)[Fuc(a1-4)]GlcNAc
# Procedure, shortened: as §1
# Neu5Gc(a2-3)Gal(b1-4)Glc = target: Neu5Gc(a2-3)Gal(b1-4)Glc
# Procedure, shortened: as §1
# [17] = target: Neu5Gc(a2-3)Gal(b1-4)GlcNAc
# Procedure, shortened: as §1
# [18] = target: Neu5Gc(a2-3)Gal(b1-4)[Fuc(a1-3)]GlcNAc
# Procedure, shortened: as §1
# [19] = target: Neu5Gc(a2-3)Gal(b1-4)[Fuc(a1-4)]GlcNAc
# Procedure, shortened: as §1
# [20] = target: Neu5Gc(a2-6)Gal(b1-4)GlcNAc
# Procedure, shortened: as §1
# Neu5Gc(a2-6)GalNAc = target: Neu5Gc(a2-6)GalNAc
# Procedure, shortened: as §1
# [21] = target: Neu5Gc(b2-6)Gal(b1-4)GlcNAc
# Procedure, shortened: as §1
binder,measurement,setting,value
"AAL (Aleuria aurantia), P18891 (protein) PTEFLYTSKIAAISWAATGGRQQRVYFQDLNGKIREAQRGGDNPWTGGSSQNVIGEAKLFSPLAAVTWKSAQGIQIRVYCVNKDNILSEFVYDGSKWITGQLGSVGVKVGSNSKLAALQWGGSESAPPNIRVYYQKSNGSGSSIHEYVWSGKWTAGASFGSTVPGTGIGATAIGPGRLRIYYQATDNKIREHCWDSNSWYVGGFSASASAGVSIAAISWGSTPNIRVYWQKGREELYEAAYGGSWNTPGQIKDASRPTPSLPDTFIAANSSGNIDISVFFQASGVSLQQWQWISGKGWSIGAVVPTGTPAGW",glycan array binding signal (z-score),Neu5Ac(a2-6)GalNAc,-0.507
same,glycan array binding signal (z-score),[1],-0.502
same,glycan array binding signal (z-score),[2],-0.432
same,glycan array binding signal (z-score),[3],-0.447
same,glycan array binding signal (z-score),Neu5Ac(a2-8)Neu5Ac,-0.473
same,glycan array binding signal (z-score),[4],-0.543
same,glycan array binding signal (z-score),[5],-0.423
same,glycan array binding signal (z-score),[6],-0.499
same,glycan array binding signal (z-score),[7],-0.526
same,glycan array binding signal (z-score),[8],-0.516
same,glycan array binding signal (z-score),[9],-0.505
same,glycan array binding signal (z-score),[10],-0.493
same,glycan array binding signal (z-score),Neu5Ac(b1-6)GalNAc,-0.567
same,glycan array binding signal (z-score),[11],-0.478
same,glycan array binding signal (z-score),Neu5Ac(b2-6)GalNAc,-0.441
same,glycan array binding signal (z-score),[12],-0.444
same,glycan array binding signal (z-score),[13],-0.441
same,glycan array binding signal (z-score),[14],-0.522
same,glycan array binding signal (z-score),[15],-0.512
same,glycan array binding signal (z-score),[16],1.09
same,glycan array binding signal (z-score),Neu5Gc(a2-3)Gal(b1-4)Glc,-0.487
same,glycan array binding signal (z-score),[17],-0.496
same,glycan array binding signal (z-score),[18],0.903
same,glycan array binding signal (z-score),[19],1.6
same,glycan array binding signal (z-score),[20],-0.471
same,glycan array binding signal (z-score),Neu5Gc(a2-6)GalNAc,-0.478
same,glycan array binding signal (z-score),[21],-0.404
